Binding data for 7 substances are collected here from paper PMC5943263.

Protein sequences, listed by entry. Tags and fused reporters are not part of them. Lines headed by an entry give the natural chain unless they say otherwise; changes in a name come on top.
UniProt Q86TM6: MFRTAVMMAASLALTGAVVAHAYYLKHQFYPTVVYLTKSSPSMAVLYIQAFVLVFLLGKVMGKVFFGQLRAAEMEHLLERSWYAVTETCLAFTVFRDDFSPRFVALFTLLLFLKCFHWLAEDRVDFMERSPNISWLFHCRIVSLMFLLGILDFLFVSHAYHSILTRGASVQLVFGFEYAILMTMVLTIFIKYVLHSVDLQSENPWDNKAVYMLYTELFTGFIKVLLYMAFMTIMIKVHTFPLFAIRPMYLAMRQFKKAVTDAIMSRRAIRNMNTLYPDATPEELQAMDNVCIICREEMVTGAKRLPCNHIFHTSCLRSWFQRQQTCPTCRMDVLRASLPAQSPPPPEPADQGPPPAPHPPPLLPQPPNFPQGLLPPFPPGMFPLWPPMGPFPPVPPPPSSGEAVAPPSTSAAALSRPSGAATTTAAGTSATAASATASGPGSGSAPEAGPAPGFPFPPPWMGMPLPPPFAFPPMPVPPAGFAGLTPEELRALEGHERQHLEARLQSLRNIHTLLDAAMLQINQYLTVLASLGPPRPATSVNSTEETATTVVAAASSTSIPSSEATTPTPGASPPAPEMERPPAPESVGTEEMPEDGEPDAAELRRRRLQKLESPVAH
UniProt P61619: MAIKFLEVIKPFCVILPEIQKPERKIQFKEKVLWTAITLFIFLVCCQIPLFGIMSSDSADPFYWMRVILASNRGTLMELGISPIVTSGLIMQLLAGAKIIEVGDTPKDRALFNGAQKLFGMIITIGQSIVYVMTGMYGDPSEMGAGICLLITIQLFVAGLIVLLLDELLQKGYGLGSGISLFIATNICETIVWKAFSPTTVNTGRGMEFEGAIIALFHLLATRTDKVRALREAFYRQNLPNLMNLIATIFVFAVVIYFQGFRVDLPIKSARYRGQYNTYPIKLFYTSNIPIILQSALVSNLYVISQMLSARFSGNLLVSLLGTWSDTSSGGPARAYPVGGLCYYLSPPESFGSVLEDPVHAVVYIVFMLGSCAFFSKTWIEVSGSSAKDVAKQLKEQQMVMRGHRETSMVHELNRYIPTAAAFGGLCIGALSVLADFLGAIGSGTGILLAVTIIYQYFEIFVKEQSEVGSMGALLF
UniProt Q9UKV5: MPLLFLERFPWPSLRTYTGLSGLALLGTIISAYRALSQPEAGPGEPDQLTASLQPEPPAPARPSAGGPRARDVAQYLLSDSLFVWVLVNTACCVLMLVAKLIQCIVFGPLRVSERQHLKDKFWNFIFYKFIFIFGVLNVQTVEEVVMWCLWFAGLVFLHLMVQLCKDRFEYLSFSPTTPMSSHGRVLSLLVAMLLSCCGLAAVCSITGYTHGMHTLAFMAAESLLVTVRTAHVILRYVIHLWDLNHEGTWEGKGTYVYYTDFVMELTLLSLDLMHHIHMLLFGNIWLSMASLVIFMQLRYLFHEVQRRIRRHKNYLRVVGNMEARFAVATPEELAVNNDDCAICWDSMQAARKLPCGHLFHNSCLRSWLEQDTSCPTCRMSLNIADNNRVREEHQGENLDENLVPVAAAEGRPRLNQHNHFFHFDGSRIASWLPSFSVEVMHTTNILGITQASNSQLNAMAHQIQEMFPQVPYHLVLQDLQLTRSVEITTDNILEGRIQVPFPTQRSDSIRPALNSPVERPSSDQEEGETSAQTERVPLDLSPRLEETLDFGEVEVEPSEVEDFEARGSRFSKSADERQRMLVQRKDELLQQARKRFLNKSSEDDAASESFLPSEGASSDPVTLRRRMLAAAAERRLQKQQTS
UniProt Q99942: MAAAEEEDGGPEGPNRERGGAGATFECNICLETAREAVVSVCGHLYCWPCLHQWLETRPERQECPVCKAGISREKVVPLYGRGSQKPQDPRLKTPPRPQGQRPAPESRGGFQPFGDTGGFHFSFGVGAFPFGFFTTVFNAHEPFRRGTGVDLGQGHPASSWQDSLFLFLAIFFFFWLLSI
UniProt P61011: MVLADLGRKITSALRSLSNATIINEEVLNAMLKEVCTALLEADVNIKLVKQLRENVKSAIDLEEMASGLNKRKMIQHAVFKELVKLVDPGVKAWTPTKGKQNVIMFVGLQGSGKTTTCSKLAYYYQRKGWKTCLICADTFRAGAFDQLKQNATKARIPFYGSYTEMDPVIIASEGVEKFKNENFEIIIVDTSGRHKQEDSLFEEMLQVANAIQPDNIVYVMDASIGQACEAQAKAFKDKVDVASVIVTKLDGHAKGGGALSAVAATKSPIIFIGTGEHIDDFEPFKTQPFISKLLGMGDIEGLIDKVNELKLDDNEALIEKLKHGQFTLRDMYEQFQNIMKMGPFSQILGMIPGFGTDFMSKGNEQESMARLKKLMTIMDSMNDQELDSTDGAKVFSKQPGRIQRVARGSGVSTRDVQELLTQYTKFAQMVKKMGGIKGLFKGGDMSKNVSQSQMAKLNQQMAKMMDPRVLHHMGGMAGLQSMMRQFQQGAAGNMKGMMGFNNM

These are yes or no findings as the source states them, for the method shown. Binding seen in cells or lysates may run through a third protein. Some binding calls cover weakened binding; strength is not graded here. For some assays here: Where a sequence is shown, tags or fusion partners need not be part of it.

Experiment [1] has as its target T1, Human Derlin-1-Flag, wild-type (human) (UniProt Q9BUN8).
T1 sequence: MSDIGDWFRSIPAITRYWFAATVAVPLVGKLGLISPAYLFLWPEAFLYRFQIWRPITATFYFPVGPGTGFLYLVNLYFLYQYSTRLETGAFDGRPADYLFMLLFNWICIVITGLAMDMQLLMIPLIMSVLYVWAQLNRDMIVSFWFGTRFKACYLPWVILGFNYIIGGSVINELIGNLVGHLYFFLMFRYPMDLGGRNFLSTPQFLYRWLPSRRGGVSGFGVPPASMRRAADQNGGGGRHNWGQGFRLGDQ
Kind of experiment: co-IP; anti-Flag M2 antibody affinity gel from lysates (20 mM Tris-HCl pH 7.5, 150 mM NaCl, 5 mM EGTA, 1% Triton X-100) of transfected HEK293 cells (WT or Derl1 KO; in some panels with Ctrl, HRD1 or Derlin-1, -2 and -3 siRNA), untreated or treated with 50 nM Tg with or without 200 nM MG132 for 16 h; beads washed with high-salt (500 mM NaCl) or low-salt (150 mM NaCl) buffer; immunoblot. A general note: Immunoblotting shows a protein as a band on a membrane.

The target in experiment [2] is T1, Human Derlin-1-Flag, wild-type (human). Briefly: condition: only in the high-molecular-weight fractions of the sucrose gradient; co-IP; as a2, the high-molecular-weight fractions only (containing rough ER marked with Sec61α and S16; fractions 15–18 in Fig. 4d).
For experiment [3] the target is unchanged. Briefly: co-IP; transfected HEK293 cells treated with 50 nM Tg and 200 nM MG132 for 16 h, solubilized in 1% digitonin, 15–40% sucrose gradient (100,000 x g, 4 °C, 16 h); each fraction (200 μl) immunoprecipitated with anti-Flag Ab affinity gel; immunoblot; all fractions.
The next experiment concerns the target HRD1-Flag (human) (UniProt Q86TM6). Briefly: co-IP; anti-Flag M2 antibody affinity gel from lysates (20 mM Tris-HCl pH 7.5, 150 mM NaCl, 5 mM EGTA, 1% Triton X-100) of transfected HEK293 cells (WT or Derl1 KO; in some panels with Ctrl, HRD1 or Derlin-1, -2 and -3 siRNA), untreated or treated with 50 nM Tg with or without 200 nM MG132 for 16 h; beads washed with high-salt (500 mM NaCl) or low-salt (150 mM NaCl) buffer; immunoblot.

Another experiment concerns the target T2, Derlin-2-Flag (human) (UniProt Q9GZP9).
T2 sequence: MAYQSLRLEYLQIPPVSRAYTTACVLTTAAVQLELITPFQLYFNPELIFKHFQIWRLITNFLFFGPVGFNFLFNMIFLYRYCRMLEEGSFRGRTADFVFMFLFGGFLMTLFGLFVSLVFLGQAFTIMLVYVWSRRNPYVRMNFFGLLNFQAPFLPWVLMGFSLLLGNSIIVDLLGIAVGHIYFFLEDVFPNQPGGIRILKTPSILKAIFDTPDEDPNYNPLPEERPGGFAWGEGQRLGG
Described as above.

Another experiment has as its target T3, Derlin-3-Flag (human) (UniProt Q96Q80).
T3 sequence: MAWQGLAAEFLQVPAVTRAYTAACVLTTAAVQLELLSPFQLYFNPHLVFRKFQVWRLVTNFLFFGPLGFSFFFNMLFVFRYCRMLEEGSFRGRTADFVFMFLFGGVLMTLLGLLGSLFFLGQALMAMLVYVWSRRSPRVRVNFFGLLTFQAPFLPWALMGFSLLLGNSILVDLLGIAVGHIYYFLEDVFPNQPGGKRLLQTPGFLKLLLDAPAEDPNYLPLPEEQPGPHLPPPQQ
The experiment is described as above.

Experiment [4] deals with T1, Human Derlin-1-Flag, wild-type (human). Briefly: co-IP; as a2, the high-molecular-weight fractions only (containing rough ER marked with Sec61α and S16; fractions 15–18 in Fig. 4d).
Another experiment concerns the target Sec61α-Flag (human) (UniProt P61619). Briefly: co-IP; anti-Flag M2 antibody affinity gel from lysates (20 mM Tris-HCl pH 7.5, 150 mM NaCl, 5 mM EGTA, 1% Triton X-100) of transfected HEK293 cells (WT or Derl1 KO; in some panels with Ctrl, HRD1 or Derlin-1, -2 and -3 siRNA), untreated or treated with 50 nM Tg with or without 200 nM MG132 for 16 h; beads washed with high-salt (500 mM NaCl) or low-salt (150 mM NaCl) buffer; immunoblot.

With “HRD1 (C291S/C329S)-Myc-His (from UniProt Q86TM6 1-617) (enzyme)”, the binding result in experiment [1] is “binds”.
On to “gp78-HA (from UniProt Q9UKV5 1-643) (enzyme)”, for which the results for the binding result in experiment [2] and in experiment [3] were “no binding” and “binds”, respectively.
For “endogenous Sec61α (from UniProt P61619 1-476)”, the binding result with HRD1-Flag (human) was “binds”.
As for “6Myc-RMA1 (printed as 6Myc-RNA1) (from UniProt Q99942 1-180) (enzyme)”, the figures for the binding entry in experiment [2] and in experiment [3] were “no binding” and “binds”, respectively.
In the case of Sec61α-HA (from UniProt P61619 1-476), the binding result (with Derlin-2-Flag (human); in the experiment with Derlin-3-Flag (human); in experiment [1]) was “binds” throughout.
For the substance “HRD1-Myc-His, wild-type (from UniProt Q86TM6 1-617) (enzyme)”, the binding result (in experiment [4]; in experiment [3]; in experiment [1]; with Sec61α-Flag (human)) was “binds” each time.
Turning to “6Myc-SRP54, 54-kDa subunit of the SRP (from UniProt P61011 1-504)”, the binding entry in experiment [1] is given as “binds”.
